Results from PMC1609128.
No constants are given. Whether binding was seen depends on the method and setting. For some assays here: In cells and extracts the contact can be indirect. Some binding calls cover weakened binding; strength is not graded here. For some assays here: Sequences can lack the tags named with a protein. Values belong to the binder of their own block, whether it stands above or below them.

Columns and labels:
[1] = target: T1, CMV-GST PRMT7 (full length) (mouse) (UniProt Q922X9); experiment: pull-down; in situ GST interaction assay: CMV-GST fusion (bait) and myc- or V5-tagged prey co-transfected in 293T cells; glutathione beads, overnight at 4 °C; beads washed 4 times in lysis buffer; Western blot
T1 sequence: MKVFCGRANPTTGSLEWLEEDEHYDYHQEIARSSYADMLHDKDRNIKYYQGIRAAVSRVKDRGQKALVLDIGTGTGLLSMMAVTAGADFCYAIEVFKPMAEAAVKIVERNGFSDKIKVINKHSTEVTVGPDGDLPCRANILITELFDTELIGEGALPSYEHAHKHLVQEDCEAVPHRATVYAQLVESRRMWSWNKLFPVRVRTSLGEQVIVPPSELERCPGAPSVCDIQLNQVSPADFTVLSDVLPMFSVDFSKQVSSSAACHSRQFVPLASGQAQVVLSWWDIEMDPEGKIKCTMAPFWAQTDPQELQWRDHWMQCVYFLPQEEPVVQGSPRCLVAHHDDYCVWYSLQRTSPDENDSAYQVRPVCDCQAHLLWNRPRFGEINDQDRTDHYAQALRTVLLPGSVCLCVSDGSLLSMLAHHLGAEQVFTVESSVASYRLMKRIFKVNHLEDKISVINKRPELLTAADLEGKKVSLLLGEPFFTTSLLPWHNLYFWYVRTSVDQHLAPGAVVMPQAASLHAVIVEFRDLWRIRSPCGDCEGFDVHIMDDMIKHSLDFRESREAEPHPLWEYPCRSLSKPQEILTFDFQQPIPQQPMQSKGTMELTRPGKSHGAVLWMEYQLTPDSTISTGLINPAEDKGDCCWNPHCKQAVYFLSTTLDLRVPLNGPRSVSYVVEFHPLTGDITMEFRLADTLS

[2] = target: T2, CMV-GST N-terminal CTCFL (1-229 aa) (mouse) (UniProt A2APF3); experiment: as above
T2 sequence: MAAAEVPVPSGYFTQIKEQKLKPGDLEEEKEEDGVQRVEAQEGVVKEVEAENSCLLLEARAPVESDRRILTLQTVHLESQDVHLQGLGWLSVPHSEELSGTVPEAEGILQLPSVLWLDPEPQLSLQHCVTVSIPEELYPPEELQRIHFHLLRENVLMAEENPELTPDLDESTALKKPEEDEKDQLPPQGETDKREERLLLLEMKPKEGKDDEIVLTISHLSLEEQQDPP

[3] = target: T3, CTCFL (CTCF like/brother of the regulator of imprinted sites), yeast two-hybrid bait (mouse) (UniProt A2APF3); experiment: two-hybrid; Matchmaker GAL4 Two-Hybrid System 3; CTCFL bait against a mouse testis cDNA prey library; four drop-out selection media, β-galactosidase screen; prey candidates re-transformed into bait strains
T3 sequence: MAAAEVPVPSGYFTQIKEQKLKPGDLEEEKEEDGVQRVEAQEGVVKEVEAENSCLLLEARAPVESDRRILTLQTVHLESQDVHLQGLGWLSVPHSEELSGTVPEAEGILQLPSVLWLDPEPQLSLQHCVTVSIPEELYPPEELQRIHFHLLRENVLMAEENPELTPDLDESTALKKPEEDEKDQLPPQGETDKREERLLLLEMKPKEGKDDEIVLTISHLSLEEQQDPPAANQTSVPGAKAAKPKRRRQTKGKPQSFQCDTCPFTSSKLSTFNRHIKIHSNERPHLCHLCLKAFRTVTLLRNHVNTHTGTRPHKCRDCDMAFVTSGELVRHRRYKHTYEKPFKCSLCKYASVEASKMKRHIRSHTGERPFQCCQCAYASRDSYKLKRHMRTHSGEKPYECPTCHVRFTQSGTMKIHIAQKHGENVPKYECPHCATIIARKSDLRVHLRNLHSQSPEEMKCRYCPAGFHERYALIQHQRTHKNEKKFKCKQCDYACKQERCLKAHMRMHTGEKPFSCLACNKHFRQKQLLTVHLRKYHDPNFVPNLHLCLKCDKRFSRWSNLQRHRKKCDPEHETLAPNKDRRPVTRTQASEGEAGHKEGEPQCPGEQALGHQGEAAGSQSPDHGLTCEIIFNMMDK

[4] = target: T4, V5-tagged PRMT7 (mouse) (UniProt Q922X9); experiment: co-IP; 293T extracts with over-expressed CTCFL-Myc and PRMT7-V5; immunoprecipitated with α-V5 antibody or normal mouse serum; CTCFL detected with α-Myc
T4 sequence: T1 sequence

- binding [1]: binds
B1: V5-tagged N-terminal CTCFL (domain or fragment, UniProt A2APF3 1-229)
chain: T2 sequence

- binding [2]: binds
B2: V5-tagged PRMT7 (enzyme, UniProt Q922X9 1-692)
chain: T1 sequence

- binding [3]: binds
B3: PRMT7 prey clone (carboxy-terminal 87 amino acids of the 692-aa protein) (domain or fragment, UniProt Q922X9 606-692)
chain: GKSHGAVLWMEYQLTPDSTISTGLINPAEDKGDCCWNPHCKQAVYFLSTTLDLRVPLNGPRSVSYVVEFHPLTGDITMEFRLADTLS

- binding [1]: no binding
B4: V5-tagged CTCF (protein, UniProt Q61164 1-736)
chain: MEGEAVEAIVEESETFIKGKERKTYQRRREGGQEEDACHLPQNQTDGGEVVQDVNSSVQMVMMEQLDPTLLQMKTEVMEGTVAPEAEAAVDDTQIITLQVVNMEEQPINIGELQLVQVPVPVTVPVATTSVEELQGAYENEVSKEGLAESEPMICHTLPLPEGFQVVKVGANGEVETLEQGELPPQEDSSWQKDPDYQPPAKKTKKTKKSKLRYTEEGKDVDVSVYDFEEEQQEGLLSEVNAEKVVGNMKPPKPTKIKKKGVKKTFQCELCSYTCPRRSNLDRHMKSHTDERPHKCHLCGRAFRTVTLLRNHLNTHTGTRPHKCPDCDMAFVTSGELVRHRRYKHTHEKPFKCSMCDYASVEVSKLKRHIRSHTGERPFQCSLCSYASRDTYKLKRHMRTHSGEKPYECYICHARFTQSGTMKMHILQKHTENVAKFHCPHCDTVIARKSDLGVHLRKQHSYIEQGKKCRYCDAVFHERYALIQHQKSHKNEKRFKCDQCDYACRQERHMIMHKRTHTGEKPYACSHCDKTFRQKQLLDMHFKRYHDPNFVPAAFVCSKCGKTFTRRNTMARHADNCAGPDGVEGENGGETKKSKRGRKRKMRSKKEDSSDSEENAEPDLDDNEEEEEPAVEIEPEPEPQPQPPPPPQPVAPAPPPAKKRRGRPPGRTNQPKQNQPTAIIQVEDQNTGAIENIIVEVKKEPDAEPAEGEEEEAQAATTDAPNGDLTPEMILSMMDR

- binding [4]: binds
B5: Myc-tagged CTCFL (full length) (protein, UniProt A2APF3 1-636)
chain: T3 sequence
